The other results are listed elsewhere or left out. Rule as the data show it: active = 3.2 or more and inactive = the rest. Only a few entries rise above the background.

The values below come from the supplement of paper PMC10369915.
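Also: displayed peptides selected on beads carrying the immobilized SH2 domain, with library peptides lacking any tyrosine serving as negative controls.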

The first test deals with SHP2 C-SH2 domain E139D. As to the kind of experiment: enrichment score (SH2-bound / input frequency) (ratio); bacterial display of known human phosphotyrosine sites (pTyr-Var adds point mutants) read by sequencing; higher = stronger binding; tyrosines were phosphorylated by kinases first. Particulars: peptide library: pTyr-Var.
Take VERIHYIGQNE [HMOX2_Y140]: the enrichment score was inactive: 1.09.

QKFMAYLSQGG [HLCS_Y236]: the enrichment score is inactive: 1.8.

Turning to GGFNNYGFGSD [HNRNPH3_Y159_N163S_YF], the enrichment score was inactive: 0.636.

On to IDDNEYAFLKA [HNF4A_Y286_YF], for which the enrichment score is inactive: 0.777.

Regarding PLRAYYLIARV [HLCS_Y635_D634Y], the enrichment score was active: 4.08.

For RKMSSYAFFVQ [HMGB1_Y16_G11R], the enrichment score was inactive: 3.2.

Consider AAVDNYCRHNY [HLA-DRB1_Y107_T106N], for which the enrichment score was inactive: 1.12.

Take PLRAFYLIARV [HLCS_Y635_D634Y_YF]: the enrichment score is inactive: 1.54.

On to SMGHRYIEVFK [HNRNPF_Y82], for which the enrichment score is inactive: 1.13.

In the case of FSMGCYEFSLG [HMGCL_Y198_I200F_YF], the enrichment score is inactive: 0.811.

KLKEKYEKDIA [HMGB1_Y155]: the enrichment score is inactive: 0.8.

Consider DNEYAYLKAII [HNF4A_Y288], for which the enrichment score was inactive: 0.664.

For FCRHNYGVVES [HLA-DRB1_Y112_YF], the enrichment score is inactive: 2.14.

With DDKQPYEKKAA [HMGB1_Y144], the enrichment score is inactive: 0.466.

On to NDFGNYNNQSS [HNRNPA1_Y318], for which the enrichment score is inactive: 0.679.

Turning to QWPGPYDRPGA [HNRNPH2_Y210_R206W], the enrichment score is inactive: 0.747.

Take VCRHNYGVVES [HLA-DRB1_Y112_Y107V]: the enrichment score is inactive: 1.53.

IDDNQYAYLKA [HNF4A_Y286_E285Q]: the enrichment score was inactive: 0.59.

A further test addresses SHP2 C-SH2 domain wild-type. The description is as above. Particulars: peptide library: pTyr-Var.
Turning to VERIHYIGQNE [HMOX2_Y140], the enrichment score is inactive: 0.947.

Take QKFMAYLSQGG [HLCS_Y236]: the enrichment score was inactive: 1.28.

Regarding GGFNNYGFGSD [HNRNPH3_Y159_N163S_YF], the enrichment score was inactive: 0.588.

For IDDNEYAFLKA [HNF4A_Y286_YF], the enrichment score is inactive: 0.587.

For the molecule PLRAYYLIARV [HLCS_Y635_D634Y], the enrichment score is active: 3.87.

Turning to RKMSSYAFFVQ [HMGB1_Y16_G11R], the enrichment score was inactive: 2.66.

In the case of AAVDNYCRHNY [HLA-DRB1_Y107_T106N], the enrichment score was inactive: 1.09.

With PLRAFYLIARV [HLCS_Y635_D634Y_YF], the enrichment score is inactive: 1.34.

Consider SMGHRYIEVFK [HNRNPF_Y82], for which the enrichment score was inactive: 1.78.

In the case of FSMGCYEFSLG [HMGCL_Y198_I200F_YF], the enrichment score is inactive: 1.48.

On to KLKEKYEKDIA [HMGB1_Y155], for which the enrichment score is inactive: 0.844.

Regarding DNEYAYLKAII [HNF4A_Y288], the enrichment score is inactive: 0.75.

In the case of FCRHNYGVVES [HLA-DRB1_Y112_YF], the enrichment score was inactive: 2.04.

For the molecule DDKQPYEKKAA [HMGB1_Y144], the enrichment score was inactive: 0.584.

Turning to NDFGNYNNQSS [HNRNPA1_Y318], the enrichment score was inactive: 0.656.

QWPGPYDRPGA [HNRNPH2_Y210_R206W]: the enrichment score was inactive: 0.578.

As to VCRHNYGVVES [HLA-DRB1_Y112_Y107V], the enrichment score is inactive: 1.61.

With IDDNQYAYLKA [HNF4A_Y286_E285Q], the enrichment score is inactive: 0.62.

For the next test, the target named is SHP2 N-SH2 domain L43F. The description is as above. As to conditions: peptide library: pTyr-Var.
In the case of VERIHYIGQNE [HMOX2_Y140], the enrichment score is inactive: 0.58.

In the case of QKFMAYLSQGG [HLCS_Y236], the enrichment score is inactive: 1.19.

For the molecule GGFNNYGFGSD [HNRNPH3_Y159_N163S_YF], the enrichment score is inactive: 0.601.

As for IDDNEYAFLKA [HNF4A_Y286_YF], the enrichment score is inactive: 0.578.

With PLRAYYLIARV [HLCS_Y635_D634Y], the enrichment score was active: 3.85.

Consider RKMSSYAFFVQ [HMGB1_Y16_G11R], for which the enrichment score was inactive: 2.63.

Regarding AAVDNYCRHNY [HLA-DRB1_Y107_T106N], the enrichment score was inactive: 1.18.

For PLRAFYLIARV [HLCS_Y635_D634Y_YF], the enrichment score is inactive: 1.2.

Turning to SMGHRYIEVFK [HNRNPF_Y82], the enrichment score is inactive: 2.68.

FSMGCYEFSLG [HMGCL_Y198_I200F_YF]: the enrichment score is inactive: 1.3.

With KLKEKYEKDIA [HMGB1_Y155], the enrichment score is inactive: 1.02.

For the molecule DNEYAYLKAII [HNF4A_Y288], the enrichment score was inactive: 0.596.

Consider FCRHNYGVVES [HLA-DRB1_Y112_YF], for which the enrichment score was inactive: 1.98.

Consider DDKQPYEKKAA [HMGB1_Y144], for which the enrichment score was inactive: 0.365.

For the molecule NDFGNYNNQSS [HNRNPA1_Y318], the enrichment score was inactive: 0.716.

With QWPGPYDRPGA [HNRNPH2_Y210_R206W], the enrichment score is inactive: 0.691.

Turning to VCRHNYGVVES [HLA-DRB1_Y112_Y107V], the enrichment score is inactive: 1.59.

On to IDDNQYAYLKA [HNF4A_Y286_E285Q], for which the enrichment score is inactive: 0.754.

A further test deals with SHP2 N-SH2 domain T42A. The description is as above. Particulars: peptide library: pTyr-Var.
Take VERIHYIGQNE [HMOX2_Y140]: the enrichment score is inactive: 0.561.

On to QKFMAYLSQGG [HLCS_Y236], for which the enrichment score is inactive: 1.39.

For the molecule GGFNNYGFGSD [HNRNPH3_Y159_N163S_YF], the enrichment score is inactive: 0.469.

On to IDDNEYAFLKA [HNF4A_Y286_YF], for which the enrichment score is inactive: 0.535.

For PLRAYYLIARV [HLCS_Y635_D634Y], the enrichment score is inactive: 2.99.

As to RKMSSYAFFVQ [HMGB1_Y16_G11R], the enrichment score was inactive: 2.46.

On to AAVDNYCRHNY [HLA-DRB1_Y107_T106N], for which the enrichment score is inactive: 0.997.

As to PLRAFYLIARV [HLCS_Y635_D634Y_YF], the enrichment score was inactive: 1.26.

In the case of SMGHRYIEVFK [HNRNPF_Y82], the enrichment score is active: 4.05.

On to FSMGCYEFSLG [HMGCL_Y198_I200F_YF], for which the enrichment score was inactive: 1.14.

For KLKEKYEKDIA [HMGB1_Y155], the enrichment score was inactive: 0.94.

As for DNEYAYLKAII [HNF4A_Y288], the enrichment score was inactive: 0.72.

Turning to FCRHNYGVVES [HLA-DRB1_Y112_YF], the enrichment score is inactive: 1.78.

Regarding DDKQPYEKKAA [HMGB1_Y144], the enrichment score is inactive: 0.537.

Turning to NDFGNYNNQSS [HNRNPA1_Y318], the enrichment score is inactive: 0.51.

With QWPGPYDRPGA [HNRNPH2_Y210_R206W], the enrichment score was inactive: 0.578.

Regarding VCRHNYGVVES [HLA-DRB1_Y112_Y107V], the enrichment score is inactive: 1.49.

For IDDNQYAYLKA [HNF4A_Y286_E285Q], the enrichment score is inactive: 0.609.

The next test has as its target SHP2 N-SH2 domain T52S. The test is described as above. Particulars: peptide library: pTyr-Var.
With VERIHYIGQNE [HMOX2_Y140], the enrichment score was inactive: 0.565.

Regarding QKFMAYLSQGG [HLCS_Y236], the enrichment score is inactive: 1.33.

In the case of GGFNNYGFGSD [HNRNPH3_Y159_N163S_YF], the enrichment score was inactive: 0.572.

As for IDDNEYAFLKA [HNF4A_Y286_YF], the enrichment score is inactive: 0.613.

PLRAYYLIARV [HLCS_Y635_D634Y]: the enrichment score was active: 3.34.

With RKMSSYAFFVQ [HMGB1_Y16_G11R], the enrichment score was inactive: 2.59.

As for AAVDNYCRHNY [HLA-DRB1_Y107_T106N], the enrichment score was inactive: 1.19.

PLRAFYLIARV [HLCS_Y635_D634Y_YF]: the enrichment score was inactive: 0.944.

SMGHRYIEVFK [HNRNPF_Y82]: the enrichment score is inactive: 3.08.

As for FSMGCYEFSLG [HMGCL_Y198_I200F_YF], the enrichment score was inactive: 0.726.

Consider KLKEKYEKDIA [HMGB1_Y155], for which the enrichment score is inactive: 0.919.

On to DNEYAYLKAII [HNF4A_Y288], for which the enrichment score was inactive: 0.635.

For FCRHNYGVVES [HLA-DRB1_Y112_YF], the enrichment score was inactive: 2.17.

Take DDKQPYEKKAA [HMGB1_Y144]: the enrichment score was inactive: 0.406.

Turning to NDFGNYNNQSS [HNRNPA1_Y318], the enrichment score was inactive: 0.593.

As to QWPGPYDRPGA [HNRNPH2_Y210_R206W], the enrichment score was inactive: 0.611.

Take VCRHNYGVVES [HLA-DRB1_Y112_Y107V]: the enrichment score is inactive: 1.47.

As for IDDNQYAYLKA [HNF4A_Y286_E285Q], the enrichment score is inactive: 0.671.

Another test has as its target SHP2 N-SH2 domain wild-type. Described as above. Particulars: peptide library: pTyr-Var.
Take VERIHYIGQNE [HMOX2_Y140]: the enrichment score was inactive: 1.15.

Take QKFMAYLSQGG [HLCS_Y236]: the enrichment score is inactive: 1.27.

As to GGFNNYGFGSD [HNRNPH3_Y159_N163S_YF], the enrichment score was inactive: 0.614.

As to IDDNEYAFLKA [HNF4A_Y286_YF], the enrichment score was inactive: 0.674.

With PLRAYYLIARV [HLCS_Y635_D634Y], the enrichment score is active: 3.96.

As to RKMSSYAFFVQ [HMGB1_Y16_G11R], the enrichment score was inactive: 2.79.

On to AAVDNYCRHNY [HLA-DRB1_Y107_T106N], for which the enrichment score was inactive: 1.2.

As for PLRAFYLIARV [HLCS_Y635_D634Y_YF], the enrichment score is inactive: 1.05.

In the case of SMGHRYIEVFK [HNRNPF_Y82], the enrichment score was inactive: 1.67.

Regarding FSMGCYEFSLG [HMGCL_Y198_I200F_YF], the enrichment score was inactive: 1.97.

For the molecule KLKEKYEKDIA [HMGB1_Y155], the enrichment score is inactive: 0.733.

Take DNEYAYLKAII [HNF4A_Y288]: the enrichment score is inactive: 0.853.

With FCRHNYGVVES [HLA-DRB1_Y112_YF], the enrichment score is inactive: 1.97.

In the case of DDKQPYEKKAA [HMGB1_Y144], the enrichment score was inactive: 0.49.

Regarding NDFGNYNNQSS [HNRNPA1_Y318], the enrichment score was inactive: 0.543.

Regarding QWPGPYDRPGA [HNRNPH2_Y210_R206W], the enrichment score is inactive: 0.789.

In the case of VCRHNYGVVES [HLA-DRB1_Y112_Y107V], the enrichment score was inactive: 1.51.

In the case of IDDNQYAYLKA [HNF4A_Y286_E285Q], the enrichment score is inactive: 0.625.
